# Measurements reported in PubChem BioAssay AID686979 (National Center for Advancing Translational Sciences (NCATS), 2013).
# In all, about 420,000 compounds went through this assay and about 50,000 (12%) were called active. Inconclusive means that the source gave no clear call. Such entries were picked first, then a sample of the others. Calls follow the shape of the dose curve; as a rule, active = well fitted inhibition curve with a large enough effect; inconclusive = small, poorly fitted or top-dose-only effect; inactive = flat fitted curve, though single readings scatter. No potency is given beside an inconclusive call; the fits are too rough.
# Test: qHTS for Inhibitors of human tyrosyl-DNA phosphodiesterase 1 (TDP1): qHTS in cells in presence of CPT; also: nearly all actives have a fitted effect of over 55% in size
# Conditions: chicken DT40 Tdp1-/-;hTDP1 cells + 20 nM CPT, ATP luminescence, 48 h; activity change, negative = growth inhibition: at 46.2 µM (top of the series) unless noted
# Summary of the method: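 Chicken DT40 Tdp1-/- cells stably complemented with human TDP1 were seeded at 400 cells/well in medium containing 20 nM camptothecin, exposed to pin-transferred compounds, and grown at 37 °C for at least 48 hr. Viability was read as ATP luminescence.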
# % is scaled to controls: 0 for no effect and ±100 for the full control effect; potency is read from the fitted curve at half-maximal effect; tags tell the direction and shape of the fitted curve.
SMILES,Potency,"activity change, negative = growth inhibition"
Nc1cc(S(=O)(=O)Nc2ccccc2Cl)ccc1N1CCCC1,"inconclusive [inhibitor, single point]",–
Cn1c(=O)c2c(nc(-c3ccccc3)n2C)n(Cc2ccccc2)c1=O,active: 16.4 µM,–
COc1cc(/C=C/C(=O)N(C)CC(=O)Nc2ccccc2Br)cc2c1OCCO2,"inconclusive [inhibitor, single point]",–
CC(C)c1ccc(NC(=O)C2CCCN(S(=O)(=O)c3cccc4nsnc34)C2)cc1 (stereo not drawn),active: 4.61 µM,–
COCC1CCN(Cc2c(C(=O)N3CCOCC3)nc3c(C)cccn23)C1 (stereo not drawn),inactive,–
COc1cccc(/C=C2\CCc3ccccc3C2=O)c1,"inconclusive [inhibitor, single point]",–
CCCOc1ccc(C(=O)CCC(=O)OCC(=O)N(C)c2c(N)n(Cc3ccccc3)c(=O)[nH]c2=O)cc1,"inconclusive [inhibitor, single point]",–
CN(CCc1ccccc1)C(=O)c1ccc(NC(=O)Cc2ccc(NC(=O)C3CCN(C(=O)C4CCC4)CC3)cc2)cc1,"inconclusive [inhibitor, single point]",–
Brc1ccc(/C=N/Nc2ncnc3c2cnn3Cc2ccccc2)cc1,active: 18.4 µM,–
CCCc1nc2scc(-c3ccc(C)cc3)c2c(=O)n1N,"inconclusive [inhibitor, single point]",–
CCOC(=O)c1c(C)oc2c1c(C=NCc1ccccn1)c(O)c1ccccc12,active: 0.92 µM,–
CCOC(=O)C(Cc1ccccc1)(Cc1ccccc1)C(C)=O,inactive,–
Cc1cccc(CNC(=O)c2cnn(-c3ncc(C)c(-c4ccc(F)cc4)n3)c2C)n1,–,inactive: -2.08% [at 9.04 µM]
O=C(O)c1ccc(NC(C(=O)c2ccccc2)c2ccccc2)cc1 (stereo not drawn),inactive,–
Cc1cc(C(=O)CN2C(=O)NC(CCS(C)(=O)=O)C2=O)c(C)n1C1CC1 (stereo not drawn),active: 18.4 µM,–
Cc1ccc(N(C(=O)c2snc(C(N)=O)c2N)C(C(=O)NCC2CCCO2)c2c[nH]c3ccccc23)cc1 (stereo not drawn),active: 4.61 µM,–
COC(=O)c1ccc(NS(=O)(=O)c2c(C)nc3sccn3c2=O)cc1,"inconclusive [inhibitor, single point]",–
COc1ccc(-c2csc3nc(C)nc(N4CCC(C)CC4)c23)cc1OC,active: 20.6 µM,–
O=C(/C=C/c1ccc([N+](=O)[O-])cc1)c1ccco1,"inconclusive [inhibitor, partial curve, poor fit]",–
Cc1ccc(C)c(N(CC(=O)N/N=C/c2ccc(-c3ccc([N+](=O)[O-])cc3)o2)S(=O)(=O)c2ccccc2)c1,"inconclusive [inhibitor, single point]",–
CCn1c(SCC(=O)N2CCN(c3ccccc3)CC2)nc2c(c1=O)SC(C)C2 (stereo not drawn),"inconclusive [inhibitor, single point]",–
COC(=O)c1c(OCc2cccnc2)cc(=O)n2c1CCN(C(=O)c1cccc(N(C)C)c1)CC2,inactive,–
Cc1cc(OCC(=O)Nc2sc3c(c2C#N)CC(C)(C)NC3(C)C)c(C(C)C)cc1Cl,"inconclusive [inhibitor, single point]",–

SMILES,Potency,"activity change, negative = growth inhibition"
O=C(CSc1nccn1-c1ccc(Cl)cc1)Nc1cccc2ccccc12,"inconclusive [inhibitor, single point]",–
COc1ccc(C2CC(=O)c3cnc4c(-c5ccccc5)c(C)nn4c3C2)cc1OC (stereo not drawn),"inconclusive [inhibitor, single point]",–
C[C@H](CO)N1C[C@H](C)[C@@H](CN(C)C)Oc2c(NC(=O)Cc3ccccc3)cccc2C1=O,"inconclusive [inhibitor, single point]",–
COc1cc(OC)cc(C(=O)Nc2ccc(N3CCN(C(=O)c4cccs4)CC3)cc2)c1,active: 5.8 µM,–
COc1ccc(NC(=O)c2ccccc2NC(=O)c2ccco2)c(OC)c1,"inconclusive [inhibitor, single point]",–
Cc1nn(C)c2c1c(C(F)(F)F)cc(=O)n2C(C)C(=O)NCCc1ccc(Cl)cc1 (stereo not drawn),active: 14.6 µM,–
O=C(CSc1nnc(Cc2cccs2)n1Cc1ccco1)Nc1ccc(Cl)cc1Cl,"inconclusive [inhibitor, partial curve]",–
Cc1c(-c2cccc(NC(=O)c3ccc(F)c(F)c3)c2)nc2ncccn12,"inconclusive [inhibitor, single point]",–
CC/C(=N/NC(=O)c1ccc2c(c1)OCO2)c1ccccc1O,active: 6.51 µM,–
C[C@H](NC(=O)c1[nH]cnc1C(=O)N[C@H](C)c1ccccc1)c1ccccc1,"inconclusive [inhibitor, single point]",–
COCCOC(=O)c1c(C)oc2c1cc(NS(=O)(=O)c1ccc(Cl)c(C)c1)c1ccccc12,"inconclusive [inhibitor, single point]",–
CCCN1C(=O)/C(=C/c2c(NCCCOCC)nc3c(C)cccn3c2=O)SC1=S,"inconclusive [inhibitor, single point]",–
CCOc1cc(CN2CCN(C(=O)c3cccc4ccccc34)CC2)ccc1OC,"inconclusive [inhibitor, single point]",–
CCOC(=O)C1(Cc2ccc(Cl)cc2)CCN(Cc2ccon2)CC1,"inconclusive [inhibitor, single point]",–
CCc1nc2ccc(C(=O)NC(C)(C)C)cn2c1N(CC)Cc1cccc(Br)c1,active: 18.4 µM,–
COc1ccc(NC(=O)CC(C)CC(=O)NCc2ccc(F)cc2)c(OC)c1 (stereo not drawn),inactive,–
COC(=O)c1cc(OC)c(OC)cc1NC(=O)Nc1cccc(C(C)=O)c1,–,inconclusive: -33.5% [inhibitor]
O=[N+]([O-])c1ccc(CSc2ccc(S(=O)(=O)N3CCCCC3)cn2)cc1,"inconclusive [inhibitor, single point]",–
COC(=O)c1ccc(-c2sc3nc(N4CCOCC4)c4c(c3c2N)CC(C)(C)OC4)o1,"inconclusive [inhibitor, partial curve]",–
C=CCN(C(=O)CCC(=O)Nc1cc(C)on1)C(C(=O)NC1CCCC1)c1ccc(C)cc1 (stereo not drawn),"inconclusive [inhibitor, partial curve, poor fit]",–
Cc1ccc2c(=O)n3c(nc2c1)C(Cc1ccc(O)cc1)NC(=O)c1cc2ccccc2cc1-3 (stereo not drawn),"inconclusive [inhibitor, single point]",–
C[C@@H]1C(c2cccc(Cl)c2)=NN(c2ccc(Br)cc2)[C@H]1C(=O)N1CCOC1=O,"inconclusive [inhibitor, single point]",–
CCCCC(=O)N(Cc1nc2sc(C)c(C)c2c(=O)[nH]1)C1CCCC1,inactive,–

SMILES,Potency,"activity change, negative = growth inhibition"
COc1ccc(OCc2ccc(-c3nc(C#N)c(NCc4ccccc4)o3)o2)cc1,"inconclusive [inhibitor, single point]",–
CC1(C(=O)NCc2cccs2)Cc2c(-c3cccc(C(F)(F)F)c3)ccnc2O1 (stereo not drawn),active: 3.26 µM,–
Cc1cccc(N2CC(C)Cn3c2nc2c3c(=O)[nH]c(=O)n2C)c1 (stereo not drawn),"inconclusive [inhibitor, single point]",–
COc1ccc(CCNc2cc(N3CCN(C(=O)c4ccccc4OC)CC3)ccc2[N+](=O)[O-])cc1OC,active: 5.8 µM,–
Cc1ccc(NC(=O)C2CC(=O)NC(N3CCc4ccccc43)=N2)cc1 (stereo not drawn),"inconclusive [inhibitor, partial curve]",–
CCOC(=O)c1cnc2c(Cl)c(Cl)ccc2c1NCCN1CCOCC1,"inconclusive [inhibitor, single point]",–
CC1CCC(NC(=O)CCNS(=O)(=O)c2ccc3c(c2)CCC(=O)N3)CC1 (stereo not drawn),inactive,–
CCc1ccc(S(=O)(=O)N2CCCC(N3CCN(c4ccc(OC)cc4)CC3)C2)cc1 (stereo not drawn),"inconclusive [inhibitor, single point]",–
Cc1cc(NC(=O)c2cccs2)ncc1NC(=O)c1cccc(F)c1,"inconclusive [inhibitor, partial curve, poor fit]",–
CCOC(=O)C1(CCOC)CCN(CC(C)Cc2ccc3c(c2)OCO3)CC1 (stereo not drawn),inactive,–
Cc1ccc(NC(=O)c2snc3ccc(Cl)cc23)cc1C,"inconclusive [inhibitor, single point]",–
S=C(Nc1cccnc1)Nc1ccccn1,–,inconclusive: -3.38% [inhibitor]
COc1ccc(N2CCN(CCCn3ccc(NC(=O)OCc4ccccc4)nc3=O)CC2)cc1,active: 23.1 µM,–
CCn1c(CCCOc2ccc(Cl)cc2Cl)nnc1SCC(=O)Nc1cccc(F)c1,"inconclusive [inhibitor, partial curve]",–
Clc1ccc(/C=C/c2ncc3ccccn23)cc1,inactive,–
CC1(CCc2ccccc2)NC(=O)N(CC(=O)N2CCCCCC2)C1=O (stereo not drawn),inactive,–
COc1ccc(CCNC(=O)C2CCN(S(=O)(=O)N3CCCCCC3)CC2)cc1OC,–,inconclusive: -34.1% [inhibitor]
Cc1nc(COc2ccc(C(=O)NCc3ccccc3CN3CCCCC3)cc2)cs1,"inconclusive [inhibitor, single point]",–
O=C(/C=C/c1ccc(Br)cc1)NC(=O)c1ccccc1O,inactive,–
CCOc1ccc(C(=O)CCN2CCOCC2)cc1,active: 3.26 µM,–
CN(Cc1cnccn1)C(=O)CC1C(=O)NCCN1Cc1cccc(Oc2ccccc2)c1 (stereo not drawn),inactive,–
Cc1ccc(NC(=O)c2c(C)oc3ccc(O)c(CN4CCCC4)c23)c(C)c1,"inconclusive [inhibitor, single point]",–
